# In PubChem BioAssay AID686978 (National Center for Advancing Translational Sciences (NCATS), 2013):
# Hit rate of the full screen: of about 420,000 compounds, about 64,000 (15%) were called active. Inconclusive means that the source gave no clear call. Such entries were picked first, then a sample of the others. The call rests on the fitted dose curve; in most records, active means well fitted inhibition curve with a large enough effect; inconclusive means small, poorly fitted or top-dose-only effect; inactive means flat fitted curve, though single readings scatter. Potencies of inconclusive entries are left out as doubtful fits.
# Experiment: qHTS for Inhibitors of human tyrosyl-DNA phosphodiesterase 1 (TDP1): qHTS in cells in absence of CPT; further: nearly all actives have a fitted effect of over 55% in size
# Details: DT40 Tdp1-/- hTDP1 cells, no CPT, ATP luminescence, 48 h; series mostly up to 46.2 µM
# In short: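 DT40 Tdp1-/-;hTDP1 cells, no CPT (DMSO vehicle only), 400 cells/well; compounds pin-transferred; ≥48 hr, 37 °C; CellTiter-Glo 30 min RT dark, luminescence read.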
# Potency means the concentration at half of the fitted maximal effect; tags describe the fitted curve by direction and shape.
row,SMILES,Potency
1,Cc1cc(C)c2c(N)c(C(=O)C(C)(C)C)sc2n1,inactive
2,CCCN1CCN(CCCNC(=O)Cn2nc(-c3ccccc3)ccc2=O)CC1,inactive
3,COc1ccc(S(=O)(=O)N2CCOCC2)cc1NC(=O)COC(=O)CCS(=O)(=O)c1ccc(C)cc1,"inconclusive [inhibitor, single point]"
4,CCc1cccc(C)c1Nc1c(-c2ccc(N(C)C)cc2)nc2cnccn12,active: 23.1 µM
5,COc1ccccc1CCNC(=O)c1cccc(NC(=O)CC2SC(N3CCCCC3)=NC2=O)c1 (stereo not given),"inconclusive [inhibitor, partial curve, poor fit]"
6,COc1cc(-c2nc3ccccc3s2)ccc1O,inactive
7,Cn1c(C(=O)N2CCN(Cc3ccccc3)CC2)cc2c(=O)n(C)c3ccccc3c21,"inconclusive [inhibitor, partial curve]"
8,COc1ccccc1CCN=C(N)NS(=O)(=O)c1cccs1,"inconclusive [inhibitor, single point]"
9,CCc1ccc(C(=O)c2cn(CC(=O)Nc3cc(OC)cc(OC)c3)c3ccc(CC)cc3c2=O)cc1,"inconclusive [inhibitor, full curve]"
10,N/C(=N\OC(=O)c1ccc(=O)n(Cc2ccc(Cl)cc2)c1)c1ccccn1,"inconclusive [inhibitor, single point]"
11,COc1ccc2c(c1)C(=O)[C@H](O)[C@@H](c1ccc(OC)c(Br)c1)O2,"inconclusive [inhibitor, single point]"
12,Oc1ccc(-c2nc3c4c(ncn3n2)-c2ccccc2CC42CCCC2)cc1,active: 16.4 µM
13,Cc1cccc(NC(=O)C(=O)NCC2CCCN2S(=O)(=O)c2cccs2)c1C (stereo not given),"inconclusive [inhibitor, single point]"
14,CC(=O)c1cccc(NC(=O)COc2nsnc2N2CCOCC2)c1,"inconclusive [inhibitor, single point]"
15,Oc1ccccc1-c1nnc(COc2ccccc2)o1,inactive
16,O=C(Nc1cccc(NC(=O)c2cccs2)c1)c1ccc2c(c1)OCCO2,"inconclusive [inhibitor, single point]"
17,O=C1/C(=C\c2cccs2)N=C(c2cccs2)N1Nc1ccccc1,inactive
18,O=C(CN1CCN(c2ccc(F)cc2)CC1)Nc1ccccc1Br,"inconclusive [inhibitor, single point]"
19,Cc1nc2ccccc2nc1Nc1cccc(Cl)c1,"inconclusive [inhibitor, single point]"
20,COc1ccc(CNC(=O)c2ccc(N3CCC4(CC3)CC(c3ccc(Cl)cc3)=NO4)c(NC(=O)Cc3ccc(F)cc3)c2)cc1,inactive
